This is an account of results in paper PMC12820563.

The list shows a part of the results. The list includes weakly bound sequences.

The experiment concerns the target T1, MBP-FoxP3dN (UniProt Q99JB6).
T1 sequence: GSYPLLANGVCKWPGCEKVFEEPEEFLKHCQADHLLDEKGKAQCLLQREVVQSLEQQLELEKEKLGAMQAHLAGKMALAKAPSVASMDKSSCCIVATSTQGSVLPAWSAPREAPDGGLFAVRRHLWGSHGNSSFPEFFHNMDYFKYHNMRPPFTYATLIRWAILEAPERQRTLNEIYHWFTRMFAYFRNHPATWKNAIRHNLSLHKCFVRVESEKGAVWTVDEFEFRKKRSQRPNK
The experiment can be described thus: PD-seq (MBP pull-down with sequencing). To be noted: 20 mM Tris-HCl pH 7.5, 100 mM NaCl, 1.5 mM MgCl2, 0.4 uM protein, 0.1 uM dsDNA library, 30 min, room temperature, amylose pull-down; high values mean tight binding; double strand, one strand shown.
With “GATGATTGTTCTCCCAGCTGATGAATTACATAACTCGAGTAAACAAATTTTCCTAATCTTTCTGTTCAAGCGCCATCTAC”, the binding signal (RPM ratio (pull-down/input)) is 0.577.

With “GATGATTGTTCTCCCAGCTGATGAATTTTCGTAATCGAGTAAACAAATTTTCCTAATCTTTCTGTTCAAGCGCCATCTAC”, the binding signal (RPM ratio (pull-down/input)) was found to be 0.8.

Regarding “GATGATTGTTCTCCCAGCTGATGAATTATACCAATCGAGTAAACAAATTTTCCTAATCTTTCTGTTCAAGCGCCATCTAC”, the binding signal (RPM ratio (pull-down/input)) came out at 0.472.

As to “GATGATTGTTCTCCCAGCTGATGAATTAAGACTTTCGAGTAAACAAATTTTCCTAATCTTTCTGTTCAAGCGCCATCTAC”, the binding signal (RPM ratio (pull-down/input)) is 1.06.

In the case of “GATGATTGTTCTCCCAGCTGATGAATTCCACTGATCGAGTAAACAAATTTTCCTAATCTTTCTGTTCAAGCGCCATCTAC”, the binding signal (RPM ratio (pull-down/input)) was 0.292.

Take “GATGATTGTTCTCCCAGCTGATGAATTGTAGACGTCGAGTAAACAAATTTTCCTAATCTTTCTGTTCAAGCGCCATCTAC”: the binding signal (RPM ratio (pull-down/input)) is 0.433.

“GATGATTGTTCTCCCAGCTGATGAATTCTCCGGTTCGAGTAAACAAATTTTCCTAATCTTTCTGTTCAAGCGCCATCTAC”: the binding signal (RPM ratio (pull-down/input)) amounted to 0.219.

For the sequence “GATGATTGTTCTCCCAGCTGATGAATTTACCTCATCGAGTAAACAAATTTTCCTAATCTTTCTGTTCAAGCGCCATCTAC”, the binding signal (RPM ratio (pull-down/input)) stood at 0.66.

In the case of “GATGATTGTTCTCCCAGCTGATGAATTCAACTCATCGAGTAAACAAATTTTCCTAATCTTTCTGTTCAAGCGCCATCTAC”, the binding signal (RPM ratio (pull-down/input)) worked out at 0.429.

In the case of “GATGATTGTTCTCCCAGCTGATGAATTTATTTTCTCGAGTAAACAAATTTTCCTAATCTTTCTGTTCAAGCGCCATCTAC”, the binding signal (RPM ratio (pull-down/input)) amounted to 5.54.

Take “GATGATTGTTCTCCCAGCTGATGAATTCTGAGATTCGAGTAAACAAATTTTCCTAATCTTTCTGTTCAAGCGCCATCTAC”: the binding signal (RPM ratio (pull-down/input)) came out at 0.498.

As for “GATGATTGTTCTCCCAGCTGATGAATTTGGGCGTTCGAGTAAACAAATTTTCCTAATCTTTCTGTTCAAGCGCCATCTAC”, the binding signal (RPM ratio (pull-down/input)) came to 1.22.

As to “GATGATTGTTCTCCCAGCTGATGAATTGCCACAGTCGAGTAAACAAATTTTCCTAATCTTTCTGTTCAAGCGCCATCTAC”, the binding signal (RPM ratio (pull-down/input)) is 0.98.

As to “GATGATTGTTCTCCCAGCTGATGAATTTACTTTATCGAGTAAACAAATTTTCCTAATCTTTCTGTTCAAGCGCCATCTAC”, the binding signal (RPM ratio (pull-down/input)) stood at 0.951.

In the case of “GATGATTGTTCTCCCAGCTGATGAATTCAGAATCTCGAGTAAACAAATTTTCCTAATCTTTCTGTTCAAGCGCCATCTAC”, the binding signal (RPM ratio (pull-down/input)) turned out to be 1.15.

Turning to “GATGATTGTTCTCCCAGCTGATGAATTCATTGACTCGAGTAAACAAATTTTCCTAATCTTTCTGTTCAAGCGCCATCTAC”, the binding signal (RPM ratio (pull-down/input)) stood at 1.49.

Take “GATGATTGTTCTCCCAGCTGATGAATTTTCTCTCTCGAGTAAACAAATTTTCCTAATCTTTCTGTTCAAGCGCCATCTAC”: the binding signal (RPM ratio (pull-down/input)) was 0.251.

Consider “GATGATTGTTCTCCCAGCTGATGAATTAAAACCGTCGAGTAAACAAATTTTCCTAATCTTTCTGTTCAAGCGCCATCTAC”, for which the binding signal (RPM ratio (pull-down/input)) came to 0.225.

Turning to “GATGATTGTTCTCCCAGCTGATGAATTCGAAACATCGAGTAAACAAATTTTCCTAATCTTTCTGTTCAAGCGCCATCTAC”, the binding signal (RPM ratio (pull-down/input)) stood at 0.645.

Take “GATGATTGTTCTCCCAGCTGATGAATTTGCACGATCGAGTAAACAAATTTTCCTAATCTTTCTGTTCAAGCGCCATCTAC”: the binding signal (RPM ratio (pull-down/input)) came out at 0.449.

Regarding “GATGATTGTTCTCCCAGCTGATGAATTTAGACCCTCGAGTAAACAAATTTTCCTAATCTTTCTGTTCAAGCGCCATCTAC”, the binding signal (RPM ratio (pull-down/input)) was found to be 0.611.

Turning to “GATGATTGTTCTCCCAGCTGATGAATTCAAGCGCTCGAGTAAACAAATTTTCCTAATCTTTCTGTTCAAGCGCCATCTAC”, the binding signal (RPM ratio (pull-down/input)) is 0.535.

As to “GATGATTGTTCTCCCAGCTGATGAATTCGAGTTTTCGAGTAAACAAATTTTCCTAATCTTTCTGTTCAAGCGCCATCTAC”, the binding signal (RPM ratio (pull-down/input)) was 0.651.

As to “GATGATTGTTCTCCCAGCTGATGAATTTAGAATCTCGAGTAAACAAATTTTCCTAATCTTTCTGTTCAAGCGCCATCTAC”, the binding signal (RPM ratio (pull-down/input)) is 1.63.

“GATGATTGTTCTCCCAGCTGATGAATTGGATTTCTCGAGTAAACAAATTTTCCTAATCTTTCTGTTCAAGCGCCATCTAC”: the binding signal (RPM ratio (pull-down/input)) was 0.846.

For the sequence “GATGATTGTTCTCCCAGCTGATGAATTATCTGTTTCGAGTAAACAAATTTTCCTAATCTTTCTGTTCAAGCGCCATCTAC”, the binding signal (RPM ratio (pull-down/input)) was 0.451.

As for “GATGATTGTTCTCCCAGCTGATGAATTGGGGCAATCGAGTAAACAAATTTTCCTAATCTTTCTGTTCAAGCGCCATCTAC”, the binding signal (RPM ratio (pull-down/input)) is 1.53.

Regarding “GATGATTGTTCTCCCAGCTGATGAATTTACCCTGTCGAGTAAACAAATTTTCCTAATCTTTCTGTTCAAGCGCCATCTAC”, the binding signal (RPM ratio (pull-down/input)) stood at 0.384.

In the case of “GATGATTGTTCTCCCAGCTGATGAATTGCTTAACTCGAGTAAACAAATTTTCCTAATCTTTCTGTTCAAGCGCCATCTAC”, the binding signal (RPM ratio (pull-down/input)) was found to be 0.498.

As to “GATGATTGTTCTCCCAGCTGATGAATTTTAAAATTCGAGTAAACAAATTTTCCTAATCTTTCTGTTCAAGCGCCATCTAC”, the binding signal (RPM ratio (pull-down/input)) amounted to 0.216.

As to “GATGATTGTTCTCCCAGCTGATGAATTTTTCTTTTCGAGTAAACAAATTTTCCTAATCTTTCTGTTCAAGCGCCATCTAC”, the binding signal (RPM ratio (pull-down/input)) was 0.256.

On to “GATGATTGTTCTCCCAGCTGATGAATTTTAGACCTCGAGTAAACAAATTTTCCTAATCTTTCTGTTCAAGCGCCATCTAC”, for which the binding signal (RPM ratio (pull-down/input)) was found to be 0.262.

As for “GATGATTGTTCTCCCAGCTGATGAATTGAGCTCATCGAGTAAACAAATTTTCCTAATCTTTCTGTTCAAGCGCCATCTAC”, the binding signal (RPM ratio (pull-down/input)) was 0.404.

Regarding “GATGATTGTTCTCCCAGCTGATGAATTTATGATATCGAGTAAACAAATTTTCCTAATCTTTCTGTTCAAGCGCCATCTAC”, the binding signal (RPM ratio (pull-down/input)) stood at 1.11.

As for “GATGATTGTTCTCCCAGCTGATGAATTAGTGTCTTCGAGTAAACAAATTTTCCTAATCTTTCTGTTCAAGCGCCATCTAC”, the binding signal (RPM ratio (pull-down/input)) was 2.04.

Regarding “GATGATTGTTCTCCCAGCTGATGAATTTAGCATATCGAGTAAACAAATTTTCCTAATCTTTCTGTTCAAGCGCCATCTAC”, the binding signal (RPM ratio (pull-down/input)) was 3.03.

Turning to “GATGATTGTTCTCCCAGCTGATGAATTGAGAGAATCGAGTAAACAAATTTTCCTAATCTTTCTGTTCAAGCGCCATCTAC”, the binding signal (RPM ratio (pull-down/input)) was 0.214.

On to “GATGATTGTTCTCCCAGCTGATGAATTTGTAGACTCGAGTAAACAAATTTTCCTAATCTTTCTGTTCAAGCGCCATCTAC”, for which the binding signal (RPM ratio (pull-down/input)) turned out to be 3.06.

As to “GATGATTGTTCTCCCAGCTGATGAATTTCAGCGGTCGAGTAAACAAATTTTCCTAATCTTTCTGTTCAAGCGCCATCTAC”, the binding signal (RPM ratio (pull-down/input)) worked out at 0.296.

Regarding “GATGATTGTTCTCCCAGCTGATGAATTCTCATTCTCGAGTAAACAAATTTTCCTAATCTTTCTGTTCAAGCGCCATCTAC”, the binding signal (RPM ratio (pull-down/input)) worked out at 0.373.
